# Experimental data: the supplement of paper PMC3334620
# Whole data set: some 33,000 sequences, median “E-score (-0.5 to 0.5)” near -0.012, cut for the highest 2% near 0.27. Some of the results follow.
# Molecular target: T1, Vhr1 (UniProt P40522)
# T1 sequence: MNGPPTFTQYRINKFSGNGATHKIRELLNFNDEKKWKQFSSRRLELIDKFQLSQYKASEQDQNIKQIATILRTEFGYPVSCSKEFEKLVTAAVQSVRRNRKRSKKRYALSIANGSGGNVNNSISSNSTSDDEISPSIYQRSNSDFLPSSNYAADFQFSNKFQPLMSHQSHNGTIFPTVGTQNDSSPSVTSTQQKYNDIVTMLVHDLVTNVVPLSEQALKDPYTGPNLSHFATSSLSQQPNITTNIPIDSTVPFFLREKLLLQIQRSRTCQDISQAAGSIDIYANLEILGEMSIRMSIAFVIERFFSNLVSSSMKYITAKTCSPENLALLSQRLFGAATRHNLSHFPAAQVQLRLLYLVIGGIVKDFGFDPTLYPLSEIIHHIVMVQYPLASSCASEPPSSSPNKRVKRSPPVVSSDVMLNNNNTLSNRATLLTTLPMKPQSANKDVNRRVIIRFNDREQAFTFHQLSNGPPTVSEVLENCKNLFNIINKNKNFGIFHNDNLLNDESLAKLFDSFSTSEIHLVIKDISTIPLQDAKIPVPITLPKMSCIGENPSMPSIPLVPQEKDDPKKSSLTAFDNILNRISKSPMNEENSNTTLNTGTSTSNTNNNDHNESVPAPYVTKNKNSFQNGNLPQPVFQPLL
# Experiment: PBM E-score (8-mer binding enrichment) (E-score (-0.5 to 0.5)); higher = stronger / more preferred TF binding; most listed sequences are background and not binding sites
# Conditions: protein concentration: 200 nM; construct: GST-full length
# Summary of the method: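 The E-score, a modified Wilcoxon-Mann-Whitney statistic, was computed by the Universal PBM Analysis Suite for every ungapped eight-base word pooled with its reverse complement. Scans behind it were normalised with masliner after bound GST-tagged yeast transcription factors were detected with fluorescent anti-GST. The proteins, at about 100-200 nM, had been applied to universal all-10-mer Agilent arrays made double-stranded by primer extension.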
row,Sequence,PBM E-score
1,ACGGTACG,0.0831
2,CCTACATA,-0.0648
3,GGGTCTGA,0.0313
4,AGTCGAAA,-0.089
5,AGGTTCTG,-0.137
6,GTGGCATA,-0.0412
7,TGCCAGAA,-0.0526
8,GAGAAGAA,-0.138
9,ACTGAGAG,0.129
10,AGCGATTG,-0.252
11,CGCGTCAG,-0.12
12,GAGAGGAA,-0.0571
13,ATACTCAT,0.277
14,ACCAGAAC,0.262
15,AGAAAGGA,-0.0926
16,ATTTAACA,0.00701
17,AATCAAAT,-0.0562
18,AGGCAGGC,-0.159
19,ATGGACAA,-0.131
20,AGGGTATG,0.138
21,CCAATTCC,-0.0792
22,ATTATCGC,0.0303
23,CGGAAAAA,-0.246
24,AACTGTGG,0.185
25,AAGGCATC,-0.371

row,Sequence,PBM E-score
1,CTAAAGCA,-0.0185
2,ATGTATCG,0.146
3,ATCAGGTG,0.197
4,GTGTAAAC,0.0594
5,CTAGAGTC,0.116
6,AGAGACTC,0.222
7,CGAGTGCG,0.0386
8,AGCCAACC,0.11
9,AAGACGAC,0.0366
10,TGAGATCA,0.00763
11,CTTCTTCC,-0.155
12,ACCGGGGA,-0.161
13,ACACTGCA,0.0651
14,ACGTTTGG,-0.0898
15,AAAGGATT,-0.0921
16,CAACCACA,0.155
17,CTGACAAA,-0.0657
18,AAAAGGCA,-0.0348
19,AAAGTGCT,-0.076
20,AGCACCGA,0.123
21,ATACTGGA,0.121
22,AACGTACT,0.196
23,TCCAATAA,-0.109
24,AAGGCAAT,-0.12
25,ATAGCCTG,0.0591

row,Sequence,PBM E-score
1,AAGCCCAG,-0.0873
2,GGTGTTGA,-0.0191
3,CGCCCCGC,0.0373
4,ACATAGAC,0.0646
5,ACACATCC,0.249
6,GACTGCAA,0.132
7,ACCTGGGC,-0.255
8,GGTTGAAC,0.0417
9,CATTAACG,0.0431
10,AAGAATCA,0.222
11,GCGTGTCC,0.209
12,ACACATGT,0.244
13,CATTCAGA,0.0364
14,ATCCGCTA,-0.0247
15,ATTTCTAC,-0.212
16,ACTACTTG,0.22
17,GCACGTGA,-0.0842
18,AACTTAAC,-0.0643
19,GAAGCACA,-0.00604
20,CAATCCCG,0.264
21,ATACCGTG,0.166
22,CCCCGGGG,-0.126
23,GCACTCAA,-0.155
24,ACCCCGGA,-0.114
25,TGTACACA,0.0228

row,Sequence,PBM E-score
1,ATTAAGAC,-0.155
2,CCTGATTC,0.367
3,ATATCACG,0.00112
4,CGCATAAA,-0.159
5,CGGGGTGA,0.275
6,AGCGAGGC,-0.196
7,AAGCGTAC,-0.125
8,ATAGGATG,0.2
9,AATCTATA,-0.00156
10,GCGAGTTA,0.0636
11,CAGCTTCG,-0.0461
12,GACTTCGA,-0.122
13,CGCAACCG,-0.0379
14,GATTTAGA,-0.118
15,CACGTACA,0.108
16,AGTCCGCC,0.243
17,ATAGTAAG,0.0984
18,AAAACCTC,-0.0788
19,CGCCCTGC,0.123
20,GAGGGAGA,-0.0874
21,ATTAAGCA,-0.118
22,CAGTGCTC,-0.00995
23,TCGGTGAA,-0.0445
24,AAGCTTAC,-0.142
25,TAACATGA,0.102

row,Sequence,PBM E-score
1,AGCCTACG,0.0434
2,CATTGGAC,0.0432
3,CGTAAATC,-0.183
4,CGAGGTTA,0.0411
5,CCTTTTTA,-0.205
6,TGAGGCCA,-0.00975
7,ACTGTGCA,0.111
8,AAGAGAAG,-0.204
9,AGCGTTGC,-0.116
10,AGTCAGAG,0.386
11,TAATCGCA,0.138
12,CAACGGCG,-0.125
13,AGTGTTGC,-0.027
14,GGAGTCCA,0.163
15,TAATTAAA,-0.00776
16,ATCATTGG,0.204
17,CATCCCTC,0.0935
18,TAAATGCA,0.064
19,CAAGTGAA,-0.108
20,TGAACGAA,-0.192
21,ATACACCC,0.11
22,ACTCACCC,0.391
23,ACTCCGCC,0.183
24,TAGAACGA,0.0366
25,AATATGTA,0.00191

row,Sequence,PBM E-score
1,AGGTTCGC,-0.102
2,ACGACAGG,0.13
3,GCTCAGGA,0.13
4,AAAGTGTT,-0.194
5,ACGAAGTA,-0.0865
6,CGTTTTAG,-0.253
7,GGACCACA,0.0696
8,AGGTTCCA,-0.201
9,AATGCGGT,0.0174
10,CCTCCAGA,-0.0252
11,AGGCAGAT,0.0683
12,ACTCGGGG,0.0931
13,GGACTGTA,-0.0126
14,ACATCGCT,0.0502
15,CGGCAAAC,0.0854
16,CACCCTGG,0.0592
17,ACAGCCAC,0.145
18,CCTCATGC,0.0272
19,AGGGCACT,-0.238
20,ATCTCTTG,-0.21
21,CTCCCATA,-0.0411
22,GCTACGCC,-0.145
23,GAGGGAAA,-0.34
24,ATTGCAGA,-0.0411
25,CCGTAACC,-0.0991

row,Sequence,PBM E-score
1,AGAGGAGC,-0.0596
2,AACAGTTA,-0.0466
3,CCGCGAAC,0.151
4,ACGCGCCG,0.00905
5,AATCCATG,0.133
6,AAATTCAT,-0.0302
7,ATCGTCCG,0.0471
8,ACTTCATG,-0.00105
9,CACCCGTA,-0.00722
10,ATACCCCC,-0.119
11,CGGGAAAC,-0.0916
12,AGGCTCAG,0.116
13,CCTAGGTA,-0.106
14,GGCGGAAA,-0.092
15,CCCAGACG,-0.152
16,ACTCTGAG,0.0558
17,CGGTCGTC,-0.0873
18,ACCATGGT,0.259
19,CCCCTTTA,-0.246
20,CCCCCACC,-0.341
21,ATACTCTC,-0.0158
22,CACGGGAA,-0.155
23,GAGAACCA,-0.0117
24,GCTTCGAC,-0.144
25,ACGTAGGG,-0.366

row,Sequence,PBM E-score
1,ATAGGCTG,-0.0935
2,AGTCAGGG,0.356
3,AGCCTTGC,-0.018
4,ACTATGTC,0.091
5,CCAAATGG,-0.109
6,CGGTTCGC,-0.00783
7,AAGGCGTA,-0.115
8,CGAGCAGC,0.166
9,GAGGATCA,-0.0399
10,GTGGTTGA,-0.104
11,AGATGGAA,-0.136
12,AATTTAGT,0.256
13,TGCGGCCA,-0.0472
14,ACCCCTAC,-0.0954
15,AATAGGTG,-0.00182
16,CTTGGACA,-0.227
17,AGCCCTAT,-0.0735
18,CTTACACC,0.0957
19,AAAAACAT,-0.0631
20,GACCAAAC,-0.0254
21,TAGTCCGA,-0.0607
22,GCTCAGCA,0.0944
23,AAGTATTA,-0.0418
24,ACACCCGC,0.0824
25,CCTGAGGA,-0.0328

row,Sequence,PBM E-score
1,CAAGTGGA,0.13
2,AAACTTTA,-0.0711
3,AGCCGGAT,0.0864
4,AATCTGGT,0.105
5,CACAACAA,-0.0806
6,CGTACTAC,-0.0502
7,GAAACTTA,-0.0802
8,CGTAGAAA,-0.204
9,AGTTTTTA,-0.234
10,AGGAAGCA,-0.0611
11,AGATTCAT,0.0481
12,CAGTCGCC,0.147
13,TGAACCCA,0.15
14,ATATCGAC,0.204
15,CGTATTCA,0.0876
16,CGATTACG,-0.00851
17,ATACCAGC,0.0165
18,AGGTTGAT,0.0467
19,ATTTGAAG,-0.294
